MIC of invasive clinical C. tropicalis isolates, CLSI broth microdilution (fluconazole 0.12-256 mg/L, up to 1,024 for the azole-resistant cluster and its neighbour group; other ranges not stated); higher = less susceptible. Call: susceptible or wild type [S] / resistant or non-wild type [R] by CLSI breakpoints or cut-offs; intermediate and dose-dependent carry no call. '<=' and '>=' at the end values are inferred; the source marks only some of them. Isolates are numbered anew.
These test systems were tested with CC[C@@H]([C@H](C)O)n1ncn(-c2ccc(N3CCN(c4ccc(OC[C@@H]5CO[C@@](Cn6cncn6)(c6ccc(F)cc6F)C5)cc4)CC3)cc2)c1=O [posaconazole] (assay: CLSI broth microdilution.).

Test System	MIC
Candida tropicalis isolate 443 (ERG11 copies: 2, Erg11p: no key change)	0.25 mg/L [S]
Candida tropicalis isolate 80 (ERG11 copies: 2, Erg11p: no key change)	0.25 mg/L [S]
Candida tropicalis isolate 338 (ERG11 copies: 2, Erg11p: no key change)	0.25 mg/L [S]
Candida tropicalis isolate 411 (ERG11 copies: 2, Erg11p: no key change)	0.25 mg/L [S]
Candida tropicalis isolate 246 (ERG11 copies: 2, Erg11p: no key change)	0.5 mg/L [R]
Candida tropicalis isolate 7 (ERG11 copies: 2, Erg11p: no key change)	0.03 mg/L [S]
Candida tropicalis isolate 382 (ERG11 copies: 2, Erg11p: no key change)	0.25 mg/L [S]
Candida tropicalis isolate 19 (ERG11 copies: 8, Erg11p: Y132F, S154F (homozygous))	1 mg/L [R]
Candida tropicalis isolate 211 (ERG11 copies: 2, Erg11p: no key change)	0.25 mg/L [S]
Candida tropicalis isolate 131 (ERG11 copies: 2, Erg11p: no key change)	0.25 mg/L [S]
Candida tropicalis isolate 93 (ERG11 copies: 2, Erg11p: no key change)	0.5 mg/L [R]
Candida tropicalis isolate 276 (ERG11 copies: 7, Erg11p: Y132F, S154F (heterozygous))	1 mg/L [R]
Candida tropicalis isolate 39 (ERG11 copies: 8, Erg11p: Y132F, S154F (heterozygous))	0.5 mg/L [R]
Candida tropicalis isolate 94 (ERG11 copies: 2, Erg11p: no key change)	0.06 mg/L [S]
Candida tropicalis isolate 208 (ERG11 copies: 2, Erg11p: no key change)	0.12 mg/L [S]
Candida tropicalis isolate 336 (ERG11 copies: 2, Erg11p: no key change)	0.12 mg/L [S]
Candida tropicalis isolate 230 (ERG11 copies: 2, Erg11p: no key change)	0.06 mg/L [S]
Candida tropicalis isolate 181 (ERG11 copies: 2, Erg11p: no key change)	0.25 mg/L [S]

What follows are test systems tested with CCCCCOc1ccc(-c2cc(-c3ccc(C(=O)N[C@H]4C[C@@H](O)[C@@H](O)NC(=O)[C@@H]5[C@@H](O)[C@@H](C)CN5C(=O)[C@H]([C@H](O)CC(N)=O)NC(=O)[C@H]([C@H](O)[C@@H](O)c5ccc(O)c(OS(=O)(=O)O)c5)NC(=O)[C@@H]5C[C@@H](O)CN5C(=O)[C@H]([C@@H](C)O)NC4=O)cc3)no2)cc1 [micafungin] (assay: CLSI broth microdilution.).

Test System	MIC
Candida tropicalis isolate 59 (ERG11 copies: 2, Erg11p: no key change)	0.03 mg/L [S]
Candida tropicalis isolate 269 (ERG11 copies: 6, Erg11p: Y132F, S154F (heterozygous))	0.03 mg/L [S]
Candida tropicalis isolate 301 (ERG11 copies: 2, Erg11p: no key change)	0.015 mg/L [S]
Candida tropicalis isolate 137 (ERG11 copies: 2, Erg11p: no key change)	0.015 mg/L [S]
Candida tropicalis isolate 17 (ERG11 copies: 2, Erg11p: no key change)	0.03 mg/L [S]
Candida tropicalis isolate 425 (ERG11 copies: 2, Erg11p: no key change)	0.03 mg/L [S]
Candida tropicalis isolate 185 (ERG11 copies: 2, Erg11p: no key change)	0.06 mg/L [S]
Candida tropicalis isolate 83 (ERG11 copies: 2, Erg11p: no key change)	0.015 mg/L [S]
Candida tropicalis isolate 157 (ERG11 copies: 8, Erg11p: Y132F, S154F (heterozygous))	0.03 mg/L [S]
Candida tropicalis isolate 288 (ERG11 copies: 2, Erg11p: no key change)	0.03 mg/L [S]
Candida tropicalis isolate 164 (ERG11 copies: 2, Erg11p: no key change)	0.06 mg/L [S]
Candida tropicalis isolate 303 (ERG11 copies: 2, Erg11p: no key change)	0.03 mg/L [S]
Candida tropicalis isolate 62 (ERG11 copies: 2, Erg11p: no key change)	0.03 mg/L [S]
Candida tropicalis isolate 54 (ERG11 copies: 2, Erg11p: no key change)	0.03 mg/L [S]
Candida tropicalis isolate 307 (ERG11 copies: 2, Erg11p: no key change)	0.06 mg/L [S]
Candida tropicalis isolate 299 (ERG11 copies: 2, Erg11p: no key change)	0.015 mg/L [S]
Candida tropicalis isolate 256 (ERG11 copies: 2, Erg11p: no key change)	0.03 mg/L [S]
Candida tropicalis isolate 401 (ERG11 copies: 10, Erg11p: Y132F, S154F (heterozygous))	0.03 mg/L [S]

Test System	MIC
Candida tropicalis isolate 443 (ERG11 copies: 2, Erg11p: no key change)	0.03 mg/L [S]
Candida tropicalis isolate 80 (ERG11 copies: 2, Erg11p: no key change)	0.03 mg/L [S]
Candida tropicalis isolate 338 (ERG11 copies: 2, Erg11p: no key change)	0.03 mg/L [S]
Candida tropicalis isolate 411 (ERG11 copies: 2, Erg11p: no key change)	0.03 mg/L [S]
Candida tropicalis isolate 246 (ERG11 copies: 2, Erg11p: no key change)	0.06 mg/L [S]
Candida tropicalis isolate 7 (ERG11 copies: 2, Erg11p: no key change)	0.03 mg/L [S]
Candida tropicalis isolate 382 (ERG11 copies: 2, Erg11p: no key change)	0.03 mg/L [S]
Candida tropicalis isolate 19 (ERG11 copies: 8, Erg11p: Y132F, S154F (homozygous))	0.06 mg/L [S]
Candida tropicalis isolate 211 (ERG11 copies: 2, Erg11p: no key change)	0.03 mg/L [S]
Candida tropicalis isolate 131 (ERG11 copies: 2, Erg11p: no key change)	0.03 mg/L [S]
Candida tropicalis isolate 93 (ERG11 copies: 2, Erg11p: no key change)	0.03 mg/L [S]
Candida tropicalis isolate 276 (ERG11 copies: 7, Erg11p: Y132F, S154F (heterozygous))	0.06 mg/L [S]
Candida tropicalis isolate 39 (ERG11 copies: 8, Erg11p: Y132F, S154F (heterozygous))	0.03 mg/L [S]
Candida tropicalis isolate 94 (ERG11 copies: 2, Erg11p: no key change)	0.03 mg/L [S]
Candida tropicalis isolate 208 (ERG11 copies: 2, Erg11p: no key change)	0.015 mg/L [S]
Candida tropicalis isolate 336 (ERG11 copies: 2, Erg11p: no key change)	0.03 mg/L [S]
Candida tropicalis isolate 230 (ERG11 copies: 2, Erg11p: no key change)	0.03 mg/L [S]
Candida tropicalis isolate 181 (ERG11 copies: 2, Erg11p: no key change)	0.03 mg/L [S]

The test systems below were run with C[C@@H]1[C@H](O)[C@@H](C)/C=C/C=C/C=C/C=C/C=C/C=C/C=C/[C@H](O[C@@H]2O[C@H](C)[C@@H](O)[C@H](N)[C@@H]2O)C[C@@H]2O[C@](O)(C[C@@H](O)C[C@@H](O)[C@H](O)CC[C@@H](O)C[C@@H](O)CC(=O)O[C@H]1C)C[C@H](O)[C@H]2C(=O)O [amphotericin B] (assay: CLSI broth microdilution.).

Test System	MIC
Candida tropicalis isolate 59 (ERG11 copies: 2, Erg11p: no key change)	0.5 mg/L [S]
Candida tropicalis isolate 269 (ERG11 copies: 6, Erg11p: Y132F, S154F (heterozygous))	1 mg/L [S]
Candida tropicalis isolate 301 (ERG11 copies: 2, Erg11p: no key change)	1 mg/L [S]
Candida tropicalis isolate 137 (ERG11 copies: 2, Erg11p: no key change)	0.5 mg/L [S]
Candida tropicalis isolate 17 (ERG11 copies: 2, Erg11p: no key change)	0.5 mg/L [S]
Candida tropicalis isolate 425 (ERG11 copies: 2, Erg11p: no key change)	1 mg/L [S]
Candida tropicalis isolate 185 (ERG11 copies: 2, Erg11p: no key change)	1 mg/L [S]
Candida tropicalis isolate 83 (ERG11 copies: 2, Erg11p: no key change)	0.5 mg/L [S]
Candida tropicalis isolate 157 (ERG11 copies: 8, Erg11p: Y132F, S154F (heterozygous))	1 mg/L [S]
Candida tropicalis isolate 288 (ERG11 copies: 2, Erg11p: no key change)	1 mg/L [S]
Candida tropicalis isolate 164 (ERG11 copies: 2, Erg11p: no key change)	0.5 mg/L [S]
Candida tropicalis isolate 303 (ERG11 copies: 2, Erg11p: no key change)	0.5 mg/L [S]
Candida tropicalis isolate 62 (ERG11 copies: 2, Erg11p: no key change)	1 mg/L [S]
Candida tropicalis isolate 54 (ERG11 copies: 2, Erg11p: no key change)	2 mg/L [S]
Candida tropicalis isolate 307 (ERG11 copies: 2, Erg11p: no key change)	0.5 mg/L [S]
Candida tropicalis isolate 299 (ERG11 copies: 2, Erg11p: no key change)	0.5 mg/L [S]
Candida tropicalis isolate 256 (ERG11 copies: 2, Erg11p: no key change)	0.5 mg/L [S]
Candida tropicalis isolate 401 (ERG11 copies: 10, Erg11p: Y132F, S154F (heterozygous))	2 mg/L [S]
Candida tropicalis isolate 443 (ERG11 copies: 2, Erg11p: no key change)	1 mg/L [S]
Candida tropicalis isolate 80 (ERG11 copies: 2, Erg11p: no key change)	1 mg/L [S]
Candida tropicalis isolate 338 (ERG11 copies: 2, Erg11p: no key change)	1 mg/L [S]
Candida tropicalis isolate 411 (ERG11 copies: 2, Erg11p: no key change)	0.5 mg/L [S]
Candida tropicalis isolate 246 (ERG11 copies: 2, Erg11p: no key change)	1 mg/L [S]
Candida tropicalis isolate 7 (ERG11 copies: 2, Erg11p: no key change)	0.5 mg/L [S]
Candida tropicalis isolate 382 (ERG11 copies: 2, Erg11p: no key change)	0.5 mg/L [S]
Candida tropicalis isolate 19 (ERG11 copies: 8, Erg11p: Y132F, S154F (homozygous))	1 mg/L [S]
Candida tropicalis isolate 211 (ERG11 copies: 2, Erg11p: no key change)	1 mg/L [S]

Reference: the supplement of paper PMC10724272
